Reference: patent US12331094B2 (Bayer Aktiengesellschaft, priority 2018, dated 2025)

T1: insulin degrading enzyme (IDE) (Rattus norvegicus, UniProt P35559)
T1 sequence (P35559 1-1019): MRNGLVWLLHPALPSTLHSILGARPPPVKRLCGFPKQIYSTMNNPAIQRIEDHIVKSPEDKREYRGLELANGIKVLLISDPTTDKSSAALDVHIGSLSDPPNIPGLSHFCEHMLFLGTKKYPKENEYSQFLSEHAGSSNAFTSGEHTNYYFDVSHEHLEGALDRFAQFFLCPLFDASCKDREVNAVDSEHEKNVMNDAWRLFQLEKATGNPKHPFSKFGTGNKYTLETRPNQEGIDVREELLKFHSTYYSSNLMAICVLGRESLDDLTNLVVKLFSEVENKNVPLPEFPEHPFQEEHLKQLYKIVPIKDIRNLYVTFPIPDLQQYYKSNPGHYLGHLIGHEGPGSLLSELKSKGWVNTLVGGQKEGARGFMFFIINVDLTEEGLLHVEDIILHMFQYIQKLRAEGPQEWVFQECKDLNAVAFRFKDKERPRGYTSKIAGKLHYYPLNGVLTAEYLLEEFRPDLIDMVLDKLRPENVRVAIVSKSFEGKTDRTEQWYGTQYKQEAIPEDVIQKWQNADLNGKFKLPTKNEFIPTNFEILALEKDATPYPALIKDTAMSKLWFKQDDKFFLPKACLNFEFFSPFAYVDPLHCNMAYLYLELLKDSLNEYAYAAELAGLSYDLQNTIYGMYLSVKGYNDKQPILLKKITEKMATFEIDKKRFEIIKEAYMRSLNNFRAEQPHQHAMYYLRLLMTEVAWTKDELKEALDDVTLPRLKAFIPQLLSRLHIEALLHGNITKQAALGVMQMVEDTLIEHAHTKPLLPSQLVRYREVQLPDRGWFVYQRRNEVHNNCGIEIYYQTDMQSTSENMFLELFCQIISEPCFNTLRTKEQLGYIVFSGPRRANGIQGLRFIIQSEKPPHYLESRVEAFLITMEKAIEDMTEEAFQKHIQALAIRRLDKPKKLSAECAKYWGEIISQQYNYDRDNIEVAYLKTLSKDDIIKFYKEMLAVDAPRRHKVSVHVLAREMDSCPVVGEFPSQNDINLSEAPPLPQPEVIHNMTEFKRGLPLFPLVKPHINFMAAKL

T2: human NPRA (hNPRA) (Homo sapiens, UniProt P16066)
T2 construct: expressed in transfected cells
T2 sequence (P16066 33-1061): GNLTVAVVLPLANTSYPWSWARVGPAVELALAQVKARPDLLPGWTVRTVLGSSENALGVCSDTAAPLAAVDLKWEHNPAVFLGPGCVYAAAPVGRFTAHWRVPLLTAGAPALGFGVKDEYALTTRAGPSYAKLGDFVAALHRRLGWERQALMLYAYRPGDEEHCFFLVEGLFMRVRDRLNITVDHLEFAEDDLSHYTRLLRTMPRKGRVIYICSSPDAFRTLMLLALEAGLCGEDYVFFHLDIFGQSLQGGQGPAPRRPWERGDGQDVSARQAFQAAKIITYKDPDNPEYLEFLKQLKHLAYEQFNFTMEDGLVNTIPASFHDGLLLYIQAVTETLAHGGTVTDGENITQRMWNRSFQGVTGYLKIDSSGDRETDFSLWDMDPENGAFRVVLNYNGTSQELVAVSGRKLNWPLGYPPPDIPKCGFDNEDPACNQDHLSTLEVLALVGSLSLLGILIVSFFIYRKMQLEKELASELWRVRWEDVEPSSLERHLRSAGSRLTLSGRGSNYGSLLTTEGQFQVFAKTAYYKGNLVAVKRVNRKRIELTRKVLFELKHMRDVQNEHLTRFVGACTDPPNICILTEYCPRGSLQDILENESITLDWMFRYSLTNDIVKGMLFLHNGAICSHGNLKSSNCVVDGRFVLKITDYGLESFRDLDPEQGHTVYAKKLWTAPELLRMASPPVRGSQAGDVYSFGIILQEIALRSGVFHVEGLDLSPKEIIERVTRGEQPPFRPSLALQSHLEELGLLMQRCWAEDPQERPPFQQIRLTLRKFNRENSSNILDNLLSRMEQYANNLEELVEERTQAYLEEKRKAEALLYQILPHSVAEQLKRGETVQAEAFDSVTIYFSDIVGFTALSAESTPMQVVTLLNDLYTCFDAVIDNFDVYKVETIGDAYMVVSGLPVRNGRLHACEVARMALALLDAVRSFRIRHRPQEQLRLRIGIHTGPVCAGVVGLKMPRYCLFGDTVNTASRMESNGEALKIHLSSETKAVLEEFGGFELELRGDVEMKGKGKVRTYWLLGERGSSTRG

B1: C5: CNP engrafted antibody, CDRH3 (antibody)
heavy: EVQLLESGGGLVQPGGSLRLSCAASGFTFSSYAMSWVRQAPGKGLEWVSAISGSGGSTYYADSVKGRFTISRDNSKNTLYLQMNSLRAEDTAVYYCTSVHQETKKYQSSPYKGANKKGLSKGCFGLKLDRIGSMSGLGCGSGGSGSYSYTYNYEWHVDVWGQGTLVTVSS[here human IgG1 constant region without letters]
light: QSVLTQPPSVSGAPGQRVTISCTGSSSNIGAGYDVHWYQQLPGTAPKLLIYGNSNRPSGVPDRFSGSKSGTSASLAITGLQAEDEADYYCQSYDSSLSGVVFGGGTKLTVLGQPKAAPSVTLFPPSSEELQANKATLVCLISDFYPGAVTVAWKADSSPVKAGVETTTPSKQSNNKYAASSYLSLTPEQWKSHRSYSCQVTHEGSTVEKTVAPTECS
B2: 91: ANP engrafted antibody, CDRH2 (antibody)
heavy: EVQLLESGGGLVQPGGSLRLSCAASGFTFSSYAMSWVRQAPGKGLEWVSAISGSGSGSGSGSGSPDGGSGGSLRRSSCFGGRMDRIGAQSGLGCNSFRYGSYGSGSGSGSGSGSTYYADSVKGRFTISRDNSKNTLYLQMNSLRAEDTAVYYCAKLTGAEYFQHWGQGTLVTVSS[here human IgG1 constant region without letters]
light: B1 light
B3: 55: ANP engrafted antibody, CDRH2 (antibody)
heavy: EVQLLESGGGLVQPGGSLRLSCAASGFTFSSYAMSWVRQAPGKGLEWVSAISGPNPNKNPNPNPGSGGSLRRSSCFGGRMDRIGAQSGLGCNSFRYGSNPNENPNPNPGSTYYADSVKGRFTISRDNSKNTLYLQMNSLRAEDTAVYYCAKLTGAEYFQHWGQGTLVTVSS[here human IgG1 constant region without letters]
light: B1 light
B4: 125: ANP engrafted antibody, CDRH3 (antibody)
heavy: [here about 100 residues without letters]VHPNPNPNPNSPDGGSGGSLRRSSCFGGRMDRIGAQSGLGCNSFRYGSYNPNPNPNPHVDVWGQGTTVTVSS[here human IgG1 constant region without letters]
light: B1 light
B5: 43: ANP engrafted antibody, CDRH2 (antibody)
heavy: EVQLLESGGGLVQPGGSLRLSCAASGFTFSSYAMSWVRQAPGKGLEWVSAISVVVTSHQAPGEGGSGGSLRRSSCFGGRMDRIGAQSGLGCNSFRYGGSTPLKSLASTYYADSVKGRFTISRDNSKNTLYLQMNSLRAEDTAVYYCAKLTGAEYFQHWGQGTLVTVSS[here human IgG1 constant region without letters]
light: B1 light

Key:
[1] = biological target: T3, neutral endopeptidase (NEP) (Homo sapiens, UniProt P08473); assay: Sensitivity towards proteolytic degradation by NEP (reporter cell activity after incubation); type: in vitro ADME; details: 4 hours incubation with 0.6 μg/ml NEP at 37° C., then reporter cell activity
T3 construct: purchased R&D Systems 1182-ZNC

[2] = biological target: T1, insulin degrading enzyme (IDE); assay: Sensitivity towards proteolytic degradation by IDE (reporter cell activity after incubation); details: 4 hours incubation with 0.6 μg/ml IDE at 37° C., then reporter cell activity
human NPRA (hNPRA) = biological target: T2, human NPRA (hNPRA); assay: cGMP quantification (HTRF) on stable hNPRA-CHO k1 cells (res, ics, pcs samples); type: cell-based; details: ANP engrafted constructs, summarized assessment relative to TPP-5661 (excerpt of Table 7)
Description: All activities shown in Tables 7 and 8 were measured on cells with heterologous over expression of human NPRA (hNPRA) by use of a cGMP quantification assay conducted according to manufacturer's instructions (cisbio; 62GM2PEH). In brief, the assay quantifies cGMP in buffered solution or cell-culture supernatants based on the competition between cGMP produced by the cell as result of the NPRA stimulation through the (natriuretic peptide) sample and d2 labelled cGMP for binding to a Cryptate labelled antibody. Sample cGMP and d2 labeled cGMP compete for binding to a limited number of sites on Cryptate labeled anti-cGMP antibodies, and consequently, HTRF® specific fluorescent signal (i.e. energy transfer) is inversely proportional to the concentration of cGMP in the sample.
Dose-response curve data were analyzed with GraphPad Prism (version 7.00 for Windows, GraphPad Software, La Jolla California USA) and EC50 were fitted according to Y=Bottom+(Top−Bottom)/(1+10^((Log EC50−X)*HillSlope)) applying constraints for bottom, top and slope (shared value for all data sets of the respective experiment).
The raw compound sample activity on stable hNPRA-CHO k1 cells was first assessed by comparison to the negative control TPP-5657 and to a positive sample, in particular TPP-5661. Controls and res were tested in quadruplets in two concentrations with a relative dilution factor of 5 aiming for a fluorescent signal (s) in the dynamic range of the assay. […] Values listed in Table 7, columns “activity res” and “stdev activity res”, represent the average of the results for the two concentrations and the respective standard deviation. Res signals less than half of the signal of the reference compound TPP-5661 (36%) were assessed as not active (n.a.).
The activity of several raw compound samples on stable hNPRA-CHO k1 cells was reassessed by comparison to reference sample TPP-5661 in 2.5-fold dilution series (8 concentrations) starting with a 5-fold dilution. The “log EC50” fit value as activity measure of the res was set in relation to the corresponding value of the reference res TPP-5661 by calculating the delta “log EC50” _compound−“log EC50” _TPP-5661; resulting values are listed in Table 7, column “rel. activity res”. […] All samples were applied in quadruplets.
The activity of isolated compound samples on stable hNPRA-CHO k1 cells was assessed by EC50 determination and comparison to reference sample TPP-5661. Samples were tested in 2.5-fold dilution series from 80 nM to 0.13 nM. The log EC50 fit value as activity measure of the ics was set in relation to the corresponding value of the reference ics TPP-5661 (−8.8) by calculating the delta log EC50_compound−log EC50_TPP-5661; resulting values are listed in Table 7, column “rel. log EC50 ics”. All samples were applied in quadruplets.
The activity of purified compound samples on stable hNPRA-CHO k1 cells was assessed in multiple experiments by EC50 determination and comparison to reference sample TPP-5661. Samples were tested in dilution series at least in quadruplets. […] The log EC50 fit value as activity measure of the pcs was set in relation to the corresponding value of the reference TPP-5661 in the respective experiment (in average −9.2, standard deviation 0.5) by calculating the delta log EC50_compound−log EC50_TPP-5661.
Compounds showing an activity in res without confirmation as ics or pcs are marked with an unified “y”, and compounds assessed as not active (“n.a.” in column “activity res”) probably due to their very low expression level (≤1 μg/ml, “n.e.” in column “μg/ml res”) are marked accordingly.

T3 sequence (P08473 52-750 limits assumed): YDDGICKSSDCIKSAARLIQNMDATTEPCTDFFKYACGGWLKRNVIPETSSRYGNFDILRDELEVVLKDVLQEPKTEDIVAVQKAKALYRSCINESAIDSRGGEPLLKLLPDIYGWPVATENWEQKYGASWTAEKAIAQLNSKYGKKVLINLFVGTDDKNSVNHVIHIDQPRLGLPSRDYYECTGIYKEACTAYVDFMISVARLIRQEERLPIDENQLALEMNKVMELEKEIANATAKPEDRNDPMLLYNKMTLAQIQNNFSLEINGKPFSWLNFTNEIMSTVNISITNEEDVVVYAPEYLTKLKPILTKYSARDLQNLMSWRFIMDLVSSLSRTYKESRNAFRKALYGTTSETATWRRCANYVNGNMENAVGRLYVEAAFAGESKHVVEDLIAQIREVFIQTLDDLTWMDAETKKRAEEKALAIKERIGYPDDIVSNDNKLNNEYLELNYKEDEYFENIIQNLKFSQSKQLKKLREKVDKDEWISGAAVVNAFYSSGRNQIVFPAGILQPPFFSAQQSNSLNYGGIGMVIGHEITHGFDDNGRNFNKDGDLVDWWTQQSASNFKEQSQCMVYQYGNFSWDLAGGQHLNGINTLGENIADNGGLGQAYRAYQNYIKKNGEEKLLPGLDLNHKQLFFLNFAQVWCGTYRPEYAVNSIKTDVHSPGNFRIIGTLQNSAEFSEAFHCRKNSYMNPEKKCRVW

Row | Molecule | proteolytic degradation by NEP [1] | proteolytic degradation by IDE [2] | qualit. activity (human NPRA (hNPRA))
1 | B1 | high resistance | high resistance | 
2 | B2 |  |  | ++ (relative log EC50<0.7 were assessed as very active)
3 | B3 |  |  | ++ (relative log EC50<0.7 were assessed as very active)
4 | B4 |  |  | ++ (relative log EC50<0.7 were assessed as very active)
5 | B5 |  |  | ++ (relative log EC50<0.7 were assessed as very active)
